# PubChem BioAssay AID330 (DTP/NCI, 2004)
# Inconclusive results and toxic doses are left out. Some entries of the source have several records that differ or are many. They are shown here; other results are not. The source may hold further records. The values listed for one entry are repeated measurements (runs, samples, wells, individuals or studies). What stands in brackets tells the records apart. Letters count within one entry.
# Tested on: P388 leukemia ip, CD2F1 mice, survival T/C
# Assay: NCI In Vivo Anticancer Drug Screen. Data for tumor model P388 Leukemia (intraperitoneal) in CD2F1 (CDF1) mice
# Details: endpoint: median survival time, higher = longer survival
# [1] = dose: 100.0 mg/kg/injection, schedule: Q01DX005 (ip), vehicle: Klucel (hydroxypropylcellulose) (HPC)
# [2] = dose: 12.5 mg/kg/injection, schedule: Q01DX009 (ip), vehicle: saline
smiles,measurement,setting,value
CC(=O)Nc1cc(NC(C)=O)cc(N(CCCl)CCCl)c1,T/C,"dose: 50.0 mg/kg/injection, schedule: Q01DX009 (ip), vehicle: water",123 % of control and 173 % of control
COc1cc2cc(c1Cl)N(C)C(=O)/C=C/C1(C)OC1C(C)C1CC(O)(NC(=O)O1)C(OC)/C=C/C=C(\C)C2OC (stereo not drawn),T/C,"dose: 16.0 micrograms/kg/injection, schedule: Q01DX009 (ip), vehicle: distilled water + alcohol",123 % of control and 158 % of control
CC[C@H]1C[C@H]2CN(CCc3c([nH]c4ccccc34)[C@@](C(=O)OC)(c3cc4c(cc3OC)N(C=O)[C@H]3[C@@](O)(C(=O)OC)[C@H](OC(C)=O)[C@]5(CC)CCCN6CC[C@]43[C@@H]65)C2)C1,T/C,"dose: 2.0 mg/kg/injection, schedule: Q01DX001 (ip), vehicle: water","114 % of control, 153 % of control, 165 % of control"
same,T/C,"dose: 4.0 mg/kg/injection, schedule: Q01DX001 (ip), vehicle: water","123 % of control, 168 % of control, 183 % of control"
COc1cc(N(CC(C)Br)CC(C)Br)ccc1N=Nc1ccccc1C(=O)O (stereo not drawn),T/C,"dose: 0.78 mg/kg/injection, schedule: Q01DX009 (ip), vehicle: saline with Tween-80",101 % of control and 150 % of control
O=P1(N(CCCl)CCCl)NCCCO1 (stereo not drawn),T/C,"dose: 37.5 mg/kg/injection, schedule: Q## X001 (ip), vehicle: saline","119 % of control, 124 % of control, 167 % of control"
same,T/C,"dose: 75.0 mg/kg/injection, schedule: Q## X001 (ip), vehicle: saline","123 % of control, 160 % of control, 197 % of control"
same,T/C,"dose: 250.0 mg/kg/injection, schedule: Q04DX002 (ip), vehicle: saline",109 % of control and 175 % of control
Nc1ccc2nc3ccc(=O)cc-3n(-c3ccccc3)c2c1,T/C,"dose: 10.0 mg/kg/injection, schedule: Q01DX009 (ip), vehicle: saline",102 % of control and 161 % of control
CNC(=O)OCc1c(COC(=O)NC)c(-c2ccc(OC)cc2)n(C)c1C,T/C,"dose: 50.0 mg/kg/injection, schedule: Q01DX009 (ip), vehicle: distilled water + Tween-80",92 % of control and 152 % of control
COc1cc2c(cc1OC)C(OC)N(C)c1c-2ccc2cc3c(cc12)OCO3 (stereo not drawn),T/C,"dose: 100.0 mg/kg/injection, schedule: Q04DX003 (ip), vehicle: saline with Tween-80","109 % of control, 154 % of control [sample A] and 109 % of control, 154 % of control [sample B]"
Cc1ccc(NC(=O)N2CC2)cc1NC(=O)N1CC1,T/C,"dose: 1.56 mg/kg/injection, schedule: Q01DX009 (ip), vehicle: Klucel (hydroxypropylcellulose) (HPC)",120 % of control and 199 % of control
CCC[CH2][Sn]([Cl])([CH2]CCC)[S]C(=S)NCCNC(=S)[S][Sn]([Cl])([CH2]CCC)[CH2]CCC,T/C,"dose: 3.13 mg/kg/injection, schedule: Q01DX009 (ip), vehicle: Klucel (hydroxypropylcellulose) (HPC)",108 % of control and 151 % of control
CCN(CC)CCC(O)(c1ccc2c(c1)OCO2)c1cc(OC)c(OC)c(OC)c1 (stereo not drawn),T/C,[1],"94 % of control, 100 % of control, 167 % of control"
Cn1c(N)c(C(=O)/C=C/c2ccccc2)c(=O)n(C)c1=O,T/C,"dose: 50.0 mg/kg/injection, schedule: Q01DX009 (ip), vehicle: Klucel (hydroxypropylcellulose) (HPC)","96 % of control [sample A] and 100 % of control, 113 % of control, 124 % of control [sample B]"
Cc1ccc(NCCNCCO)c2c(=O)c3ccc(O)cc3sc12,T/C,"dose: 100.0 mg/kg/injection, schedule: Q01DX009 (ip), vehicle: saline with Tween-80",111 % of control and 154 % of control
COc1cc(-c2ccc(Nc3ccccc3C(=O)O)c(OC)c2)ccc1N,T/C,"dose: 200.0 mg/kg/injection, schedule: Q04DX003 (ip), vehicle: saline with Tween-80",118 % of control and 150 % of control
CCCC(=O)NC1=C(N2CC2)C(=O)C(NC(=O)CCC)=C(N2CC2)C1=O,T/C,"dose: 3.13 mg/kg/injection, schedule: Q01DX009 (ip), vehicle: saline with Tween-80",118 % of control and 150 % of control
O=C1C2CC(Cl)C(SSC3CC4C(=O)N(SC(Cl)(Cl)C(Cl)Cl)C(=O)C4CC3Cl)CC2C(=O)N1SC(Cl)(Cl)C(Cl)Cl (stereo not drawn),T/C,"dose: 25.0 mg/kg/injection, schedule: Q01DX005 (ip), vehicle: saline with Tween-80",119 % of control and 166 % of control
CC(=O)OC1(C)CC(C)C(=O)C(C(O)CC2CC(=O)NC(=O)C2)C1 (stereo not drawn),T/C,"dose: 216.0 micrograms/kg/injection, schedule: Q01DX009 (ip), vehicle: saline",116 % of control and 154 % of control
same,T/C,"dose: 778.0 micrograms/kg/injection, schedule: Q04DX003 (ip), vehicle: saline",109 % of control and 165 % of control
c1cc2cc(-c3ccc4cc(C5=NCCN5)[nH]c4c3)[nH]c2cc1C1=NCCN1,T/C,"dose: 100.0 mg/kg/injection, schedule: Q04DX003 (ip), vehicle: saline",100 % of control and 159 % of control
CCN(CC)CCNc1ccc([N+](=O)[O-])c2sc3ccccc3c(=O)c12,T/C,"dose: 200.0 mg/kg/injection, schedule: Q01DX009 (ip), vehicle: saline with Tween-80",117 % of control and 178 % of control
Cc1cccc(N(CCOS(C)(=O)=O)CCOS(C)(=O)=O)c1,T/C,[2],100 % of control and 188 % of control
S=P(N1CC1)(N1CC1)N1CC1.[Cl-].[Cl-].[NH2-].[NH2-].[Pt+4],T/C,"dose: 3.12 mg/kg/injection, schedule: Q01DX009 (ip), vehicle: saline","155 % of control [sample A] and 113 % of control, 122 % of control [sample B] and 123 % of control [sample C]"
same,T/C,[2],92 % of control [sample A] and 180 % of control [sample B]
CC(C)NC(=O)OCc1c(COC(=O)NC(C)C)c(-c2ccc(Cl)c(Cl)c2)n2c1CCC2,T/C,"dose: 37.5 mg/kg/injection, schedule: Q01DX009 (ip), vehicle: saline with Tween-80",102 % of control and 197 % of control
same,T/C,[1],"110 % of control, 182 % of control, 187 % of control"
CN(Cc1cnc2nc(N)nc(N)c2n1)c1ccc(C(=O)NC(CCC(=O)OCc2cc3c(cc2Cl)OCO3)C(=O)OCc2cc3c(cc2Cl)OCO3)cc1 (stereo not drawn),T/C,"dose: 3.75 mg/kg/injection, schedule: Q01DX005 (ip), vehicle: saline with Tween-80",91 % of control and 188 % of control
S=P(N1CCCCCC1)(N1CC1)N1CC1,T/C,"dose: 25.0 mg/kg/injection, schedule: Q01DX009 (ip), vehicle: saline",112 % of control and 159 % of control
Nc1cc2c(c[n+](CCCCCCC[n+]3cc4c5ccccc5c(N)cc4c4ccccc43)c3ccccc23)c2ccccc12,T/C,"dose: 0.78 mg/kg/injection, schedule: Q04DX003 (ip), vehicle: other",109 % of control and 150 % of control
same,T/C,"dose: 25.0 mg/kg/injection, schedule: Q04DX003 (ip), vehicle: other",95 % of control and 153 % of control
Cc1c2ccncc2c(C)c2c1[nH]c1cc(O)ccc12,T/C,"dose: 100.0 mg/kg/injection, schedule: Q04DX003 (ip), vehicle: distilled water + Tween-80",98 % of control and 153 % of control
